These results are taken from the supplement of paper PMC11417369.

± gives the standard deviation of the averaged measurements. The list shows a part of the results.

In the test the test system is PfAP2-LT AP2 domain (GST-tagged). Kind of test: gcPBM binding intensity (ln(normalized median fluorescence intensity)); higher = stronger DNA binding. The procedure, abridged:
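Alexa488 anti-GST antibody, scanned at 488 nm, detected GST-tagged P. falciparum DNA-binding domains that had been expressed in E. coli and incubated for 1 h on an Agilent 4 × 180k array. The array carried primer-extended double-stranded 36-bp intergenic genomic probes and negative controls. Binding intensity is the highest Masliner-normalised natural-log median intensity across replicate spots of either orientation of each probe.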
For the sequence “AATTTCTACTATTGTATGCACTTTCATACATACATA [GTGCAC_site9924]”, the “gcPBM binding intensity (ln)” value stood at 9.04 ± 0.41.

For the sequence “AGGTGTGAGACCACGTTCACAAAATAAAATACATAA [CACACA_negctrl_site326]”, the “gcPBM binding intensity (ln)” value was found to be 8.98 ± 0.73.

For the sequence “AACACAAGAACAGAACGTACACACACATATATATAT [XGTACX_site7347]”, the “gcPBM binding intensity (ln)” value was determined as 9.84 ± 0.13.

On to “AAATAAATTAAAATAAATTAAATTAAATTAGCATTA [GTGCAC_negctrl_site531]”, for which the “gcPBM binding intensity (ln)” value is 8.13 ± 0.58.

Take “TGTATGTTATGTATATGTACATATCTTTGTATTTAT [XGTACX_site6920]”: the “gcPBM binding intensity (ln)” value amounted to 9.1 ± 0.53.

Regarding “TATTTATAAGTTTACGCATGCATATAATTATTAATA [TGCATGCA_site311]”, the “gcPBM binding intensity (ln)” value is 8.62 ± 0.29.

In the case of “TTTTTTTTTTTTTTTGTGCACAATTATTTCAATTTT [GTGCAC_site9884]”, the “gcPBM binding intensity (ln)” value turned out to be 8.91 ± 0.49.

Consider “ACCTTATTTATTATTGCATGTGACCATCAGATGGTA [TGCATGCA_site288]”, for which the “gcPBM binding intensity (ln)” value is 9.19 ± 0.29.

As to TTTATTTTTTACCAAGTGCAATATATTATAATAATA, the “gcPBM binding intensity (ln)” value came to 8.32 ± 0.38.

In the case of “TAATATTTATAATAGTGTACACAATTATAAACTGAA [XGTACX_site8426]”, the “gcPBM binding intensity (ln)” value was determined as 8.7 ± 0.37.

For the sequence “AAAGAAAAAAAATAATGTACTTATGTATTTCAGAAA [XGTACX_site3570]”, the “gcPBM binding intensity (ln)” value is 8.41 ± 0.59.

For the sequence “TTCATACATAGAAAATGTACATATATATATATATAT [XGTACX_site1895]”, the “gcPBM binding intensity (ln)” value is 9.72 ± 0.085.

With “ATATATATGCATAATACACACATCATATAATTAACC [CACACA_site1643]”, the “gcPBM binding intensity (ln)” value amounted to 9.27 ± 0.37.

As for “TACAAAATATTTTACACACACATATAAATACAGATA [CACACA_site5447]”, the “gcPBM binding intensity (ln)” value is 9.38 ± 0.28.

As to “AAAAAAAAAAACAATACATGCATAATATTAATAAAA [TGCATGCA_site913]”, the “gcPBM binding intensity (ln)” value stood at 8.69 ± 0.49.

Take “AAGATATGTACTAATACACACACATATATATATATA [CACACA_site8249]”: the “gcPBM binding intensity (ln)” value was found to be 9.86 ± 0.14.

As to “TATCCATGCATTTACACACACACAAAAAAAAATTCT [CACACA_site4100]”, the “gcPBM binding intensity (ln)” value was determined as 9.6 ± 0.4.

In the case of “ATTTTTTTTTTTAATACACACAATTTTGATGAAGCA [CACACA_site3157]”, the “gcPBM binding intensity (ln)” value was 8.7 ± 0.38.

For “TTTCATAAGAGAAAGACACACAAATATATATTTATT [CACACA_site827]”, the “gcPBM binding intensity (ln)” value was 8.7 ± 0.47.

For “ACATTACCATATAAAACACACAAACATACATACATA [CACACA_site7709]”, the “gcPBM binding intensity (ln)” value is 9.23 ± 0.3.

Consider “TATAATATTTGGTGCACACAAATTAACAACTGTTTA [CACACA_site3742]”, for which the “gcPBM binding intensity (ln)” value was found to be 8.88 ± 0.29.

Turning to “AAGACACAAAAACACACACACATACATACATACATA [CACACA_site454]”, the “gcPBM binding intensity (ln)” value amounted to 9.99 ± 0.31.

As for “TATGTTGATGATGATAGTACATATGAGTTCAAAAAA [XGTACX_site7712]”, the “gcPBM binding intensity (ln)” value was 8.72 ± 0.55.

Consider “AATAAAAAAGGAAACAAATTAATATATATATATATA [CACACA_negctrl_site467]”, for which the “gcPBM binding intensity (ln)” value came to 9.25 ± 0.26.

For “TATATTTGGAAAACATGTACATATAACAATATGTAA [XGTACX_site324]”, the “gcPBM binding intensity (ln)” value was 8.71 ± 0.34.
